PubChem BioAssay (NCATS)
This list was built around the results that the source calls inconclusive (neither active nor inactive); the mix of calls is not that of the screen. For some assays here: Where the call is inconclusive, the potency comes from a doubtful curve fit. The source made the active and inactive calls. The call rests on the fitted dose curve; in most records, active means well fitted curve in the direction sought with a large enough effect; inconclusive means small, poorly fitted or top-dose-only effect, or another doubt; inactive means no such curve, though single readings can be large; an effect the other way counts as inactive or inconclusive.

How the values were obtained:
[1] = qHTS of pediatric cancer cell lines to identify multiple opportunities for drug repurposing: Primary screen for DAOY cells (AID 1347090); conditions: DAOY medulloblastoma viability, CellTiter-Glo luminescence, 48 h; activity change, negative = cytotoxic: at 46 µM (top of the series); further: potency means the concentration at half of the fitted maximal effect; nearly all actives have a fitted effect of over 55% in size
In short: (§1)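 Eight- or eleven-point concentration series, 48 h treatment at 37 degrees C in growth media; readout CellTiter-Glo luminescence. Potency and efficacy were taken from the concentration-response curves.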

[2] = qHTS of pediatric cancer cell lines to identify multiple opportunities for drug repurposing: Primary screen for A673 cells (AID 1347092); conditions: A673 Ewing sarcoma viability, CellTiter-Glo ATP luminescence, 48 h; activity change, negative = cytotoxic: at 46 µM (top of the series); further: potency means the concentration at half of the fitted maximal effect; nearly all actives have a fitted effect of over 45% in size
In short: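 A673 cells (500-1,000 cells/well) were treated 48 hours at 37 degrees C with compounds at 11-point (0.78 nM to 46 µM) or 8-point (0.59 nM to 46 µM) dilutions. Viability read by CellTiter-Glo luminescence; concentration-response curves fitted.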

[3] = qHTS of pediatric cancer cell lines to identify multiple opportunities for drug repurposing: Primary screen for SK-N-MC cells (AID 1347093); conditions: SK-N-MC viability, CellTiter-Glo luminescence, 48 h; activity change, negative = cytotoxic: at 46 µM (top of the series); further: potency means the concentration at half of the fitted maximal effect
In short: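 Metabolically active cells were quantified by ATP-dependent luminescence (CellTiter-Glo, 15 min at room temperature) following 48 h treatment. Cells had been plated at 500-1,000 per well and settled for 5 h beforehand.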

[4] = qHTS of pediatric cancer cell lines to identify multiple opportunities for drug repurposing: Primary screen for NB-EBc1 cells (AID 1347095); further: potency means the concentration at half of the fitted maximal effect
In short: (§2)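 500-1,000 cells/well; 5 h pre-incubation 37 °C/5% CO2; compound pinned; 48 h; CellTiter-Glo, 15 min RT; luminescence. MIPE 11-pt from 0.78 nM, NPC 8-pt from 0.59 nM final. Bortezomib 2.3 µM final as positive control.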

[5] = qHTS of pediatric cancer cell lines to identify multiple opportunities for drug repurposing: Primary screen for U-2 OS cells (AID 1347096); further: potency means the concentration at half of the fitted maximal effect; nearly all actives have a fitted effect of over 50% in size
In short: (§3)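 Cells (500-1,000/well) in growth media were settled 5 h at 37 degrees C, then given compounds for 48 h. Viability was read as CellTiter-Glo luminescence. Primary runs used MIPE at 11 points (0.78 nM-46 µM) and NPC at 8 points (0.59 nM-46 µM); follow-ups used 11 points.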

[6] = qHTS of pediatric cancer cell lines to identify multiple opportunities for drug repurposing: Primary screen for Saos-2 cells (AID 1347097); further: potency means the concentration at half of the fitted maximal effect; nearly all actives have a fitted effect of over 40% in size
In short: as §2

[7] = qHTS of pediatric cancer cell lines to identify multiple opportunities for drug repurposing: Primary screen for SK-N-SH cells (AID 1347098); further: potency means the concentration at half of the fitted maximal effect; nearly all actives have a fitted effect of over 65% in size
In short: (§4)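 Cells (500-1,000/well) rested 5 h, then received compounds for 48 h; metabolically active cells were measured by CellTiter-Glo luminescence. Final concentrations spanned up to 46 µM (MIPE, 11-point) or 0.59 nM-46 µM (NPC, 8-point) in primary screens, 11-point in follow-ups.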

[8] = qHTS of pediatric cancer cell lines to identify multiple opportunities for drug repurposing: Primary screen for LAN-5 cells (AID 1347100); conditions: LAN-5 neuroblastoma viability, CellTiter-Glo luminescence, 48 h; activity change, negative = cytotoxic: at 46 µM (top of the series); further: potency means the concentration at half of the fitted maximal effect
In short: as §3

[9] = qHTS of pediatric cancer cell lines to identify multiple opportunities for drug repurposing: Primary screen for BT-12 cells (AID 1347101); further: nearly all actives have a fitted effect of over 25% in size; further: potency means the concentration at half of the fitted maximal effect
In short: as §4

[10] = qHTS of pediatric cancer cell lines to identify multiple opportunities for drug repurposing: Primary screen for Rh18 cells (AID 1347102); further: potency means the concentration at half of the fitted maximal effect; nearly all actives have a fitted effect of over 65% in size
In short: as §3

[11] = qHTS of pediatric cancer cell lines to identify multiple opportunities for drug repurposing: Primary screen for RD cells (AID 1347104); further: potency means the concentration at half of the fitted maximal effect; nearly all actives have a fitted effect of over 55% in size
In short: as §2

[12] = qHTS of pediatric cancer cell lines to identify multiple opportunities for drug repurposing: Primary screen for MG 63 (6-TG R) cells (AID 1347105); conditions: MG 63 (6-TG R) viability, CellTiter-Glo, 48 h; activity change, negative = cytotoxic: at 46 µM (top of the series); further: potency means the concentration at half of the fitted maximal effect; nearly all actives have a fitted effect of over 50% in size
In short: as §2

[13] = qHTS of pediatric cancer cell lines to identify multiple opportunities for drug repurposing: Primary screen for Rh41 cells (AID 1347108); further: potency means the concentration at half of the fitted maximal effect; nearly all actives have a fitted effect of over 70% in size
In short: as §2

[14] = qHTS of pediatric cancer cell lines to identify multiple opportunities for drug repurposing: Primary screen for BT-37 cells (AID 1347094); further: potency means the concentration at half of the fitted maximal effect
In short: as §2

[15] = qHTS of pediatric cancer cell lines to identify multiple opportunities for drug repurposing: Primary screen for NB1643 cells (AID 1347099); further: potency means the concentration at half of the fitted maximal effect; nearly all actives have a fitted effect of over 50% in size
In short: as §2

[16] = qHTS of pediatric cancer cell lines to identify multiple opportunities for drug repurposing: Primary screen for OHS-50 cells (AID 1347103); further: potency means the concentration at half of the fitted maximal effect; nearly all actives have a fitted effect of over 40% in size
In short: as §4

[17] = qHTS of pediatric cancer cell lines to identify multiple opportunities for drug repurposing: Primary screen for Rh30 cells (AID 1347107); further: potency means the concentration at half of the fitted maximal effect; nearly all actives have a fitted effect of over 75% in size
In short: as §3

[18] = qHTS of pediatric cancer cell lines to identify multiple opportunities for drug repurposing: Primary screen for control Hh wild type fibroblast cells (AID 1347106); further: nearly all actives have a fitted effect of over 55% in size; further: potency means the concentration at half of the fitted maximal effect;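 on activity change, negative = cytotoxic: a drop in luminescence marks cytotoxicity and a rise apparent proliferation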
In short: as §3

[19] = qHTS of pediatric cancer cell lines to identify multiple opportunities for drug repurposing: Primary screen for SJ-GBM2 cells (AID 1347091); further: potency means the concentration at half of the fitted maximal effect
In short: as §1

[20] = qHTS of pediatric cancer cell lines to identify multiple opportunities for drug repurposing: Confirmatory screen for NB1643 cells (AID 1347109); conditions: NB1643 neuroblastoma cell viability; activity change, negative = cytotoxic: at 45.9 µM (top of the series); further: nearly all actives have a fitted effect of over 45% in size
In short: as §3

Measured: Potency
Tags describe the fitted curve by direction and shape.

N#CC1(c2cccc(C(=O)Nc3cc(Oc4ccc5nc(NC(=O)C6CC6)sc5n4)ccc3F)c2Cl)CC1
inconclusive: [1] 4.69 µM [cytotoxic, full curve] | [2] 4.69 µM [cytotoxic, full curve] | [3] 2.96 µM [cytotoxic, full curve, poor fit] | [4] 0.0935 µM [cytotoxic, full curve] | [5] 2.96 µM [cytotoxic, full curve] | [6] 5.9 µM [cytotoxic, full curve] | [7] 8.57 µM [cytotoxic, partial curve] | [8] 5.9 µM [cytotoxic, full curve] | [9] 2.73 µM [cytotoxic, partial curve] | [10] 5.9 µM [cytotoxic, partial curve] | [11] 1.48 µM [cytotoxic, full curve] | [12] 2.96 µM [cytotoxic, full curve] | [13] 5.26 µM [cytotoxic, partial curve]

COc1ccc(-c2cc3nccn3c(Nc3ncccc3C(N)=O)n2)cc1OC
active: [2] 1.48 µM | [3] 1.66 µM | [6] 1.05 µM | [15] 2.35 µM | [16] 1.93 µM | [13] 2.35 µM
inconclusive: [1] 4.69 µM [cytotoxic, full curve, poor fit] | [14] 3.06 µM [cytotoxic, full curve] | [5] 1.48 µM [cytotoxic, full curve, poor fit] | [7] 6.07 µM [cytotoxic, partial curve] | [9] 3.43 µM [cytotoxic, full curve] | [11] 4.18 µM [cytotoxic, full curve] | [17] 4.69 µM [cytotoxic, partial curve]

C=CCc1cccc(C=NNC(=O)CN2CCN(Cc3ccccc3)CC2)c1O
inconclusive: [2] 4.69 µM [cytotoxic, full curve] | [15] 20.9 µM [cytotoxic, single point] | [8] 14.8 µM [cytotoxic, partial curve, poor fit] | [10] 18.7 µM [cytotoxic, partial curve] | [17] 20.9 µM [cytotoxic, partial curve]
active: [1] 18.7 µM | [14] 9.68 µM | [13] 18.7 µM

COc1cccc2nc(-c3cccs3)nc(NN3C(=O)C=C(C)C3=O)c12
inactive: [18]
inconclusive: [17] 5.9 µM [cytotoxic, full curve]
active: [1] 2.35 µM | [2] 2.35 µM | [3] 0.0148 µM | [5] 1.87 µM | [6] 0.743 µM | [15] 0.743 µM | [9] 2.73 µM

NCCCC(N)(C(=O)O)C(F)F (configuration not stated)
inconclusive: [1] 18.7 µM [cytotoxic, single point] | [19] 0.264 µM [cytotoxic, full curve, poor fit] | [6] 29.9 µM [cytotoxic, single point] | [16] 15.3 µM [cytotoxic, partial curve, poor fit] | [11] 18.7 µM [cytotoxic, partial curve] | [18] 1.66 µM [cytotoxic, partial curve, poor fit] | [13] 11.8 µM [cytotoxic, partial curve, poor fit]
inactive: [9] | [20]

CN1CCC[C@H]1CCO[C@](C)(c1ccccc1)c1ccc(Cl)cc1
inconclusive: [1] 37.2 µM [cytotoxic, single point] | [2] 37.2 µM [cytotoxic, single point] | [6] 33.2 µM [cytotoxic, single point] | [16] 30.6 µM [cytotoxic, partial curve] | [13] 23.5 µM [cytotoxic, partial curve, poor fit]
inactive: [8]

CN(C)C(=O)c1ccc(S(=O)(=O)c2ccc(NC(=O)[C@@](C)(O)C(F)(F)F)c(Cl)c2)cc1
inconclusive: [6] 16.6 µM [cytotoxic, partial curve] | [15] 9.35 µM [cytotoxic, partial curve] | [16] 4.32 µM [cytotoxic, full curve] | [11] 18.7 µM [cytotoxic, partial curve] | [12] 18.7 µM [cytotoxic, partial curve, poor fit] | [13] 9.35 µM [cytotoxic, partial curve]
active: [1] 18.7 µM | [2] 18.7 µM
inactive: [4]

C[C@]1(CO)CN(c2cc(C(=O)Nc3ccc4c(c3)-c3c(c(C(N)=O)nn3-c3ccc(F)cc3)CC4)c(Cl)cn2)C[C@@]1(C)CO
active: [1] 11.8 µM | [2] 9.35 µM | [8] 5.26 µM | [16] 10.9 µM
inconclusive: [5] 29.6 µM [cytotoxic, single point] | [11] 16.6 µM [cytotoxic, partial curve] | [18] 3.32 µM [cytotoxic, full curve] | [17] 16.6 µM [cytotoxic, partial curve] | [13] 18.7 µM [cytotoxic, partial curve]

COc1cc2c(Nc3ccc(NC(=O)c4ccccc4)cc3)ncnc2cc1OCCCN1CCOCC1
active: [4] 18.7 µM
inconclusive: [1] 23.5 µM [cytotoxic, single point] | [3] 1.48 µM [cytotoxic, full curve, poor fit] | [5] 37.2 µM [cytotoxic, single point] | [6] 14.8 µM [cytotoxic, partial curve] | [7] 12.1 µM [cytotoxic, partial curve] | [9] 30.6 µM [cytotoxic, single point] | [10] 33.2 µM [cytotoxic, single point] | [12] 29.6 µM [cytotoxic, single point] | [13] 18.7 µM [cytotoxic, partial curve]

CCCCOCCOc1nc(-c2ccc(C(=O)O)c(F)c2)sc1C
active: [7] 6.81 µM
inconclusive: [1] 5.9 µM [cytotoxic, partial curve, poor fit] | [3] 26.4 µM [cytotoxic, single point] | [10] 18.7 µM [cytotoxic, partial curve] | [17] 14.8 µM [cytotoxic, partial curve, poor fit] | [13] 18.7 µM [cytotoxic, partial curve]
